Laboratory results as given in PubChem BioAssay AID652106 (National Center for Advancing Translational Sciences (NCATS), 2013).
About 500 (0.14%) of roughly 370,000 compounds were called active. Inconclusive means that the source gave no clear call. Such entries were picked first, then a sample of the others. Calls follow the shape of the dose curve; as a rule, active = well fitted activation curve with a large enough effect; inconclusive = small, poorly fitted or top-dose-only effect; inactive = no such curve, though single readings can be large or run the other way. A potency beside an inconclusive call is a rough fit, not a confirmed value.

Assay: qHTS of alpha-syn Inhibitors; also: nearly all actives have a fitted effect of over 65% in size; as to growth rescue (activation): % of control where 0% means no effect
Conditions: Yeast expressing alpha-synuclein, BacTiter-Glo, 24 h; Potency: growth rescue unless noted; growth rescue (activation): at 46.1 µM (top of the series) unless noted
In short: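 Screening used galactose-induced yeast with toxic alpha-synuclein levels, exposed to compound for 24 hr at 30 deg C. Cell growth, read with BacTiter-Glo luminescence, gave the measured signal.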
Potency is read from the fitted curve at half-maximal effect; tags tell the direction and shape of the fitted curve.

Row | SMILES | Potency | growth rescue (activation)
1 | Cc1[nH]n(-c2ncc(-c3ccccc3)s2)c(=O)c1C(c1ccc(Cl)cc1)C(C#N)C#N (stereo not drawn) | inconclusive: 31.6 µM [activator, single point] | –
2 | Nc1nonc1C(=O)N/N=C/c1cc(Br)ccc1O | inconclusive: 5.62 µM [activator, single point] | –
3 | O=C(CC1SC(=Nc2ccccc2)N(CCc2c[nH]c3ccccc23)C1=O)Nc1ccccc1F (stereo not drawn) | inconclusive: 22.4 µM [activator, single point] | –
4 | O=C(NC(=S)Nc1ccc(S(=O)(=O)NC2CCCCC2)cc1)c1cccs1 | inconclusive: 25.1 µM [activator, single point] | –
5 | CC(C)(C)NC(=O)C(c1ccc(-c2ccccc2)cc1)n1c(=O)c(-c2cc3ccccc3[nH]2)nc2ccccc21 (stereo not drawn) | inconclusive: 5.62 µM [activator, single point] | –
6 | CCn1c(CC(=O)Nc2ccccc2)nnc1SCC(=O)Nc1nncs1 | inconclusive: 6.31 µM [activator, single point] | –
7 | COc1cc2c(cc1OC)CN(C(=O)/C=C/c1ccc([N+](=O)[O-])cc1)CC2 | inactive | –
8 | Cc1ccc(-c2csc(NCCc3nc4cc(Cl)c(Cl)cc4n3CCCO)n2)cc1 | inconclusive: 15.8 µM [activator, single point] | –
9 | N#CCSc1nnc(COc2cccc3ccccc23)n1-c1ccccc1 | inactive | –
10 | COc1ccc(C(=O)/C=C/C(=O)N(CC(=O)NC2CCCCC2)Cc2cccs2)c(O)c1 | inactive | –
11 | CCCN(CC(=O)Nc1ccccc1C)C(=O)CCCOc1ccc(Br)cc1 | inconclusive: 20 µM [activator, single point] | –
12 | COC(=O)c1sc(N)nc1CCNC(=O)OC(C)(C)C | inconclusive: 28.2 µM [activator, single point] | –
13 | CC1(C)Cc2cccc(OCC(=O)N3CCN(c4cccc(Cl)c4)CC3)c2O1 | inconclusive: 35.5 µM [activator, single point] | –
14 | COC(=O)CCC(C)C1CCC2C3C(OC(C)=O)CC4CC(O)CCC4(C)C3CC(O)C12C (stereo not drawn) | inconclusive: 5.62 µM [activator, single point] | –
15 | COc1ccc(OC)c(NC(=O)c2ccc(NS(C)(=O)=O)cc2)c1 | inconclusive: 5.62 µM [activator, single point] | –
16 | COc1cc(OC)c2c(-c3ccccc3)cc(=O)oc2c1C(CCN1CCOCC1)c1ccc(N(C)C)cc1 (stereo not drawn) | inconclusive: 17.8 µM [activator, single point] | –
17 | COC(=O)COc1cccc(NC(=O)C(c2ccccc2)c2ccccc2)c1 | inactive | –
18 | COc1cccc(NS(=O)(=O)c2ccc3c(c2)CC(=O)N3)c1 | – | inconclusive: 345% [activator] [at 1.84 µM]
19 | Cc1ccc(Cl)cc1N1CCN(c2ncnc3onc(C)c23)CC1 | inconclusive: 31.6 µM [activator, single point] | –
20 | CCCn1c(N)c(N(CCOC)C(=O)c2ccc(N3CCCC3=O)cc2)c(=O)[nH]c1=O | inconclusive: 35.5 µM [activator, single point] | –
21 | COc1ccc(Cl)cc1NC(=O)CN(C)CC(=O)Nc1ccccc1-c1ccccc1 | inactive | –
22 | O=C(COc1ccc([N+](=O)[O-])cc1)NNC(=O)Nc1ccccc1F | inactive | –
23 | O=S(=O)(Nc1cccc2c1CCCC2)c1cccc(C(F)(F)F)c1 | inconclusive: 15.8 µM [activator, single point] | –

Row | SMILES | Potency | growth rescue (activation)
24 | COc1ccc(-c2c(C)oc3cc(O)cc(O)c3c2=O)cc1OC | inconclusive: 35.5 µM [activator, single point] | –
25 | CCN1CCN(c2ccc(Cl)cc2NC(=O)c2ccc(-n3nc(C)cc3C)cc2)CC1 | inconclusive: 5.62 µM [activator, single point] | –
26 | Cn1c(SCC(=O)N2c3ccccc3Sc3ccccc32)nnc1-c1ccco1 | inconclusive: 17.8 µM [activator, single point] | –
27 | COc1ccccc1/C=C1\SC(N2CCC(C)CC2)=NC1=O | inactive | –
28 | CSc1ccc(CNCCCSc2ncccn2)cc1 | inactive | –
29 | CCOC(=O)Cn1c2ccc(C)cc2c2nc(C)sc21 | inactive | –
30 | CC(=O)C(Cc1ccccc1)NC(=O)COc1ccc2c(c1)OCO2 (stereo not drawn) | inconclusive: 35.5 µM [activator, single point] | –
31 | Cc1c(Cl)cccc1NC(=S)N(Cc1ccccc1)Cc1cccnc1 | inconclusive: 35.5 µM [activator, single point] | –
32 | Cc1ccc(S(=O)(=O)NCCSc2nnnn2-c2cc(C)ccc2C)cc1 | inconclusive: 12.6 µM [activator, single point] | –
33 | COc1cc(/C=C2\SC(c3ccc(C)cc3)=NC2=O)cc(OC)c1OC | inactive | –
34 | CC(C)c1ccc(NC(=O)c2cc(S(=O)(=O)NCC3COc4ccccc4O3)ccc2F)cc1 (stereo not drawn) | inconclusive: 14.1 µM [activator, single point] | –
35 | CCOc1ccc(-c2cc(N)n(S(=O)(=O)c3cccc4nsnc34)n2)cc1 | inconclusive: 3.16 µM [activator, single point] | –
36 | CC1c2[nH]c3ccccc3c2CCN1C(=O)Nc1ccccc1 (stereo not drawn) | inconclusive: 5.62 µM [activator, single point] | –
37 | COc1ccc(OC)c(Nc2cc(C)nc3nc(C)nn23)c1 | inconclusive: 35.5 µM [activator, single point] | –
38 | COc1ccc(-c2noc(CN3CCN(c4ccccc4)CC3)n2)cc1 | inconclusive: 35.5 µM [activator, single point] | –
39 | Cc1c2cnn(CC(=O)NCc3ccccn3)c(=O)c2c(C)n1Cc1ccccc1 | inconclusive: 5.62 µM [activator, single point] | –
40 | CC12CCC(C)(c3nc4ccccc4nc31)C2(C)C | inactive | –
41 | CC(=O)c1cccc(NC(=O)CCOc2ccccc2)c1 | inconclusive: 35.5 µM [activator, single point] | –
42 | O=c1c2ccccc2nnn1COc1cccc2ccccc12 | inconclusive: 31.6 µM [activator, single point] | –
43 | COC(=O)C(Cc1c[nH]c2ccccc12)NC(=O)COc1ccc(Cl)cc1Cl (stereo not drawn) | inconclusive: 20 µM [activator, partial curve] | –
44 | CCOc1ccc(-n2c(SCC(=O)N3CCCC3)nc3c([nH]c4ccccc43)c2=O)cc1 | inconclusive: 22.4 µM [activator, single point] | –
45 | CSCCC(NC=O)C(=O)NC(C)C(=O)O (stereo not drawn) | inactive | –
46 | C[C@@H]1CN([C@@H](C)CO)C(=O)c2cc(Br)cnc2O[C@H]1CN(C)C(=O)Nc1ccccc1 | inconclusive: 5.62 µM [activator, single point] | –

Row | SMILES | Potency | growth rescue (activation)
47 | CCn1c(CCCOc2ccc(Cl)cc2Cl)nnc1SCC(=O)Nc1cc(F)ccc1C | inconclusive: 35.5 µM [activator, single point] | –
48 | O=C1c2ccccc2[C@@H]2C[C@@H](O)[C@H](Nc3ccccc3)CCN12 | inconclusive: 5.62 µM [activator, single point] | –
49 | O=C(O)c1cnn(-c2nc(-c3cccc(F)c3)cs2)c1C(F)(F)F | inactive | –
50 | Cc1[nH]c2ccc(C(=O)N3CCN(c4cccc(Cl)c4)CC3)cc2c1C | active: 20 µM | –
51 | CCc1c(-c2cccc(Br)c2)ncn1Cc1cccc(-c2ccccc2)c1 | inconclusive: 3.98 µM [activator, single point] | –
52 | CCn1c(C)c(C)c2cc(C(=O)N3CCc4ccccc4C3)ccc21 | inactive | –
53 | Cc1ccc(NC(=O)Nc2cc(S(C)(=O)=O)ccc2Cl)cc1 | inconclusive: 5.62 µM [activator, single point] | –
54 | CCN(CC)S(=O)(=O)c1ccc(N2CCOCC2)c(NC(=O)c2ccccc2F)c1 | inconclusive: 35.5 µM [activator, single point] | –
55 | Clc1ccc(C(c2ccccc2Cl)C(Cl)Cl)cc1 (stereo not drawn) | inactive | –
56 | CCOc1ccc(-c2nn3c(-c4ccccc4)nnc3s2)cc1 | inconclusive: 5.62 µM [activator, single point] | –
57 | CS(=O)(=O)N(CC(=O)N1CCN(c2ccc(F)cc2)CC1)c1ccc(F)c(Cl)c1 | inconclusive: 5.62 µM [activator, single point] | –
58 | Cc1ccnc(NC(=O)C2CCCN(S(=O)(=O)c3ccc4[nH]c(=O)ccc4c3)C2)c1 (stereo not drawn) | inactive | –
59 | OCCN1CCN(c2ncnc3c2ncn3[C@H]2CN(Cc3cccs3)C[C@@H](CO)O2)CC1 | inconclusive: 31.6 µM [activator, single point] | –
60 | Cc1cc(NCc2ccco2)nc(N2CCC(C(=O)NC3CCCCC3)CC2)n1 | inconclusive: 31.6 µM [activator, single point] | –
61 | Cc1cnc(NC(=O)CCc2ccccc2)s1 | inactive | –
62 | OC(c1ccccc1)c1nc(-c2ccc(Cl)cc2)cs1 (stereo not drawn) | inconclusive: 5.62 µM [activator, single point] | –
63 | COc1cc(NS(=O)(=O)c2ccc3ccccc3c2)c2ncccc2c1 | inconclusive: 25.1 µM [activator, single point] | –
64 | O=C(Nc1ccc(Br)cc1)c1cccc(N2C(=O)C3C4CCC(C4)C3C2=O)c1 (stereo not drawn) | inconclusive: 17.8 µM [activator, single point] | –
65 | COc1ccc(OC)c(C(=O)c2coc3ccc(OC(C)=O)cc23)c1 | inactive | –
66 | CC(=O)c1ccc(N2CCN(C(=O)c3cc4c(s3)CCCC4)CC2)cc1 | inconclusive: 2.82 µM [activator, partial curve, poor fit] | –
67 | CC(C)(C)c1ccc(S(=O)(=O)N2CCC(O)(c3ccc(Cl)cc3)CC2)cc1 | inconclusive: 35.5 µM [activator, single point] | –
68 | Cc1cc(O)ccc1NC(=S)NC(=O)c1cncc(Br)c1 | inconclusive: 28.2 µM [activator, single point] | –
